According to ChEMBL document CHEMBL4888484, “Replenishing the malaria drug discovery pipeline: Screening and hit evaluation of the MMV Hit Generation Library 1 (HGL1) against asexual blood stage Plasmodium falciparum ,using a nano luciferase reporter read-out” (2022):
Screen size: about 150,000 compounds; about 540 (0.36%) showed an effect of 50% or more. The list shows a part of the results.

The molecules below were run on Plasmodium falciparum (assay: Primary screen in NF54 nanoGlo assay, in single point, at 2uM, 72h; a lower Z score goes with more inhibition). Conditions: timepoint 72 hour.
Format: functional, Erythrocyte
For `COc1nc2c(cc1CNC(=O)[C@H](C)c1ccccc1)C(=O)N(C1CCCC1)C2`, the “% Inhibition” value was -2% and the Z score was 0.21.
`CC(C)(C(=O)N1C[C@@H]2CS(=O)(=O)C[C@@H]2C1)c1ccc(F)cc1F` was tested, and the “% Inhibition” value was -2% and the Z score was 0.46.
`CC(=C(F)C(=O)N(C)CCc1ncc(Br)cn1)C1CC1` was tested, and the “% Inhibition” value was -11% and the Z score was 1.93.
For `FCC1CN(Cc2ccc3cn[nH]c3c2)C1`, the “% Inhibition” value was -1% and the Z score was 0.19.
In the case of `Cc1cnn([C@H]2CCN(C(=O)CCC(C)(C)C)C2)c1`, the “% Inhibition” value is reported as 27% and the Z score is reported as -3.58.
With `Nc1nc2c(cnc3c(F)cccc32)c(=O)[nH]1` the “% Inhibition” value was 1% and the Z score was -0.1.
In the case of `OC(COCc1cccs1)CN1CCCC1Cn1cncn1` (stereo unspecified), the “% Inhibition” value is reported as -16% and the Z score is reported as 1.32.
For `C[C@@]1(CO)CN(Cc2ccccc2)C[C@@H]2CN(C3CCOCC3)CCN21`, the “% Inhibition” value was -2% and the Z score was 0.28.
`O=C(Nc1cc(C2CC2)ccn1)c1ccncn1` was tested, and the “% Inhibition” value was -16% and the Z score was 2.06.
With `Cc1ccc(C(=O)N2CCn3c(nnc3C3CCN(S(=O)(=O)C(C)C)CC3)C2)c(C)c1` the “% Inhibition” value was -4% and the Z score was 0.66.
In the case of `COCCNC(=O)NCC1(O)CCCC1`, the “% Inhibition” value is reported as 8% and the Z score is reported as -0.93.
`COc1ccccc1[C@@H]1CC(c2cccn2C)=NN1C(=O)CN(C)C(=O)C1CCC1` was tested, and the “% Inhibition” value was -6% and the Z score was 0.94.
In the case of `CCCC(C)(CNC(=O)CC1CCCO1)NC(=O)CC1CCCO1` (stereo unspecified), the “% Inhibition” value is reported as -5% and the Z score is reported as 0.7.
For `Cc1ccc2c(NC(=O)NCC3(CO)CCC3)cccc2n1`, the “% Inhibition” value was -9% and the Z score was 1.22.
For `O=C([C@@H]1COc2ccccc2O1)N1CCc2sccc2C1`, the “% Inhibition” value was -7% and the Z score was 1.29.
With `CCN(c1ccc2sc(C(=O)N3CCN(c4ccccc4F)CC3)cc2c1)S(C)(=O)=O` the “% Inhibition” value was 4% and the Z score was -0.54.
In the case of `CN(c1ccc(Cl)c(C(=O)N2CCN(c3ccccc3)CC2)c1)S(C)(=O)=O`, the “% Inhibition” value is reported as -2% and the Z score is reported as 0.31.
In the case of `Cc1cc(C(=O)N2CCCN(Cc3ccc(F)cc3)[C@H](C(C)C)C2)no1`, the “% Inhibition” value is reported as -1% and the Z score is reported as 0.15.
For `O=C(CC1=Nc2ccccc2S(=O)(=O)N1)Nc1ccccc1F`, the “% Inhibition” value was -13% and the Z score was 1.5.
`CO[C@H]1CN(C(=O)CCc2c[nH]c3ccc(C)cc23)C[C@H]1OC` was tested, and the “% Inhibition” value was -2% and the Z score was 0.33.
With `Cc1ccn(-c2ccnc(NCc3ccc(F)cc3F)n2)n1` the “% Inhibition” value was -2% and the Z score was 0.36.
In the case of `O=S1(=O)C[C@H](NC2CCCC2)[C@@H](S(=O)(=O)c2ccccc2)C1`, the “% Inhibition” value is reported as -2% and the Z score is reported as 0.24.
With `NC(=O)[C@H]1CC[C@@H](NC(=O)N2CCO[C@H](c3ccc(Cl)cc3)C2)C1` the “% Inhibition” value was -5% and the Z score was 0.7.
In the case of `O=C(CN1CCCS1(=O)=O)Nc1ccccc1Cc1ccccc1`, the “% Inhibition” value is reported as -7% and the Z score is reported as 0.66.
With `Cc1nc(N2CCCC[C@H]2c2nnc[nH]2)c(Cl)cc1C#N` the “% Inhibition” value was -4% and the Z score was 0.72.
For `CN(C)C(=O)CCc1cccc(NC(=O)N2CCN3CCN(C)C(=O)[C@@H]3C2)c1`, the “% Inhibition” value was -6% and the Z score was 1.06.
For `CC(C)CN1C(=O)c2ccccc2N[C@@H]1c1cn2ccccc2n1`, the “% Inhibition” value was 4% and the Z score was -0.46.
In the case of `O=C(O)c1cc2cc(-c3cccc(C(F)(F)F)c3)ccc2[nH]c1=O`, the “% Inhibition” value is reported as -11% and the Z score is reported as 1.46.
`CN1CCO[C@H](C(=O)N(C)Cc2cc(Br)cn2C)C1` was tested, and the “% Inhibition” value was -5% and the Z score was 0.89.
`CCS(=O)(=O)N(CCN1CCCCC1)C1CN(C(=O)CCc2c[nH]c3ccccc23)C1` was tested, and the “% Inhibition” value was -2% and the Z score was 0.28.
In the case of `Cc1cnn(CCC(=O)N2C[C@@H](CN3CCOCC3)C[C@H](CO)C2)c1`, the “% Inhibition” value is reported as 3% and the Z score is reported as -0.54.
`Cc1ccc(C(=O)CN2C(=O)NC3(CCCCCCC3)C2=O)c(C)c1` was tested, and the “% Inhibition” value was -7% and the Z score was 1.04.
`CN(Cc1cccnc1)C(=O)[C@@H]1CCCN1C(=O)CC(C)(C)C` was tested, and the “% Inhibition” value was -12% and the Z score was 1.53.
For `COc1ccc(CC(=O)Nc2ccc(N3CCN(c4ccccc4F)CC3)c(S(=O)(=O)N[C@H]3CCCc4ccccc43)c2)cc1`, the “% Inhibition” value was -3% and the Z score was 0.52.
In the case of `COC(=O)c1ccc(NC(=O)OC(C)(C)C)nc1`, the “% Inhibition” value is reported as -4% and the Z score is reported as 0.78.
With `O=C(O)[C@H]1CC[C@@H](C(=O)N2CCN(c3ccc(F)c(Cl)c3)CC2)C1` the “% Inhibition” value was 0% and the Z score was -0.04.
`CC(C)(C)c1cc(-c2cnc3n2CCOC3)cc(C(C)(C)C)c1O` was tested, and the “% Inhibition” value was 3% and the Z score was -0.39.
With `Cc1nc(CN2C(=O)COc3ccc(S(=O)(=O)N4CCC(C)CC4)cc32)no1` the “% Inhibition” value was -20% and the Z score was 2.42.
With `CCc1ccc(CN2CCC(CNC(=O)C(C)(C)C)CC2)nc1` the “% Inhibition” value was -7% and the Z score was 1.11.
In the case of `CCCc1cc(C(=O)NC[C@H]2CC[C@H](C(=O)O)CC2)n(C)n1`, the “% Inhibition” value is reported as 9% and the Z score is reported as -0.84.
With `Cc1nc(NCC2CCCOC2C(C)C)sc1S(N)(=O)=O` (stereo unspecified) the “% Inhibition” value was -13% and the Z score was 1.47.
In the case of `CC(C)(C)OC(=O)[C@]1(C)CCCN1Cc1nc(=O)[nH][nH]1`, the “% Inhibition” value is reported as 1% and the Z score is reported as -0.11.
For `CNC(=O)Cc1nc(-c2cc(F)cc(F)c2)cc(-c2ccc3c(c2)OCO3)n1`, the “% Inhibition” value was -8% and the Z score was 1.07.
